# In the supplement of paper PMC4604168 (melanoma cell lines):
# The list shows a part of the results. Many values rest on one well or one pass, so single values are uncertain.
# How the values were obtained:
# Test in all cases: cell count relative to DMSO control; melanoma cells; higher = more viable cells
# Settings in all cases: library dose: standard library concentration; 72 h
# G361 = system: G361
# IPC-298 = system: IPC-298
# IST-MEL1 = system: IST-MEL1
# LB2518-MEL = system: LB2518-MEL
# LOXIMVI = system: LOXIMVI
# MEL-HO = system: MEL-HO
# MZ2-MEL = system: MZ2-MEL
# MeWo = system: MeWo
# RPMI7951 = system: RPMI7951
# RVH-421 = system: RVH-421
# 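Also: cells treated in 1,536-well plates, then fixed and DAPI-stained, with nuclei counted from automated high-throughput microscope images.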
Compound,cell count (G361),cell count (IPC-298),cell count (IST-MEL1),cell count (LB2518-MEL),cell count (LOXIMVI),cell count (MEL-HO),cell count (MZ2-MEL),cell count (MeWo),cell count (RPMI7951),cell count (RVH-421)
"Cn1cncc1[C@@](N)(c1ccc(Cl)cc1)c1ccc2c(c1)c(-c1cccc(Cl)c1)cc(=O)n2C [tipifarnib] + COc1ccc(-c2ccc3c(N4CCOCC4)nc(N4C[C@@H](C)O[C@@H](C)C4)nc3n2)cc1CO [KU0063794] (first compound 0.05 µM, partner dose 0.1 µM)",76.4%,65%,76.1%,85.6%,86.1%,76.2%,90%,70.8%,71.4%,85.7%
"O=c1[nH]nc(Sc2ncc([N+](=O)[O-])s2)n1-c1ccc2c(c1)OCCO2 + O=C(O)C(=O)Nc1sc2c(c1C(=O)O)CCNC2 [TCS401] (first compound 1 µM, partner dose 8.33333 µM)",108%,94.9%,99%,90.8%,96.6%,93%,102%,106%,93.6%,104%
"O=c1[nH]nc(Sc2ncc([N+](=O)[O-])s2)n1-c1ccc2c(c1)OCCO2 + Cc1cc(N2CCOCC2)cc2[nH]c(-c3c(NC[C@@H](O)c4cccc(Cl)c4)cc[nH]c3=O)nc12 [BMS536924] (first compound 1 µM, partner dose 1 µM)",91.3%,100%,114%,77.8%,107%,96.9%,124%,75%,83.4%,111%
"COc1cc(Nc2ncc(F)c(Nc3ccc4c(n3)NC(=O)C(C)(C)O4)n2)cc(OC)c1OC [Tamatinib] + COc1ccc(COc2ccc(Cc3cnc(N)nc3N)cc2OC)cc1 [GW2580] (first compound 2 µM, partner dose 5 µM)",72.9%,80.9%,91.2%,111%,54.4%,75.1%,69.9%,66%,56.8%,74.5%
"CC1(C)NC(=O)N(c2ccc([N+](=O)[O-])c(C(F)(F)F)c2)C1=O [nilutamide] + O=S(=O)(c1ccccc1)N(CC(F)(F)F)c1ccc(C(O)(C(F)(F)F)C(F)(F)F)cc1 [T0901317] (first compound 5 µM, partner dose 7 µM)",66.4%,77.2%,98.4%,98.5%,80.2%,96.7%,95.6%,78.7%,91.9%,88.4%
"O=c1[nH]nc(Sc2ncc([N+](=O)[O-])s2)n1-c1ccc2c(c1)OCCO2 + COc1ccc(COc2ccc(Cc3cnc(N)nc3N)cc2OC)cc1 [GW2580] (first compound 1 µM, partner dose 5 µM)",111%,108%,99.7%,103%,91.1%,104%,105%,96.2%,105%,86.8%
"Cn1cncc1[C@@](N)(c1ccc(Cl)cc1)c1ccc2c(c1)c(-c1cccc(Cl)c1)cc(=O)n2C [tipifarnib] + N#Cc1c(O)c2c(-c3ccc(-c4ccccc4O)cc3)csc2[nH]c1=O [A769662] (first compound 0.05 µM, partner dose 10 µM)",81.1%,88.3%,86.9%,67.1%,80.8%,90.4%,82%,90%,104%,81.2%
"O=C(Nc1cccc(Cl)c1)Nc1ncc(CCNc2ncnc3ccsc23)s1 + Cn1cc(/C=C2\C(=O)Nc3cccnc32)c2ccccc21 [GW441756] (first compound 0.004 µM, partner dose 2 µM)",76.9%,66.8%,74.7%,96.8%,88.2%,94.4%,77.6%,94.5%,71.7%,88.2%
"O=c1[nH]nc(Sc2ncc([N+](=O)[O-])s2)n1-c1ccc2c(c1)OCCO2 + COc1ccc2c(c1)CCC1C2CCC2(C)C(NCCCCCCN3C(=O)C=CC3=O)CCC12 [U73122] (first compound 1 µM, partner dose 2 µM)",89.3%,98.3%,98%,101%,83.4%,91.4%,107%,76.3%,42.2%,102%
"O=c1[nH]nc(Sc2ncc([N+](=O)[O-])s2)n1-c1ccc2c(c1)OCCO2 + NC(=O)Nc1cc(-c2cccc(F)c2)sc1C(=O)N[C@H]1CCCNC1 [AZD7762] (first compound 1 µM, partner dose 0.1 µM)",92.7%,110%,93.6%,75.8%,73.1%,79.6%,116%,77.4%,30.9%,94.1%
"O=C(O)c1ccc(-c2c[nH]c3ncc(-c4ccccc4)cc23)cc1C1CCCC1 + O=S(=O)(c1ccccc1)N(CC(F)(F)F)c1ccc(C(O)(C(F)(F)F)C(F)(F)F)cc1 [T0901317] (first compound 0.8 µM, partner dose 7 µM)",55.5%,66.2%,77.2%,90.6%,84.2%,74.4%,76.1%,76.3%,70.2%,68%
"CC1(C)NC(=O)N(c2ccc([N+](=O)[O-])c(C(F)(F)F)c2)C1=O [nilutamide] + Cc1cc([N+](=O)[O-])ccc1NS(=O)(=O)c1cc(Cl)ccc1Cl [FH535] (first compound 5 µM, partner dose 5 µM)",49.7%,47.9%,56.1%,83.4%,68.6%,51.4%,67.9%,79.3%,91.9%,70.3%
"O=C(Nc1cccc(Cl)c1)Nc1ncc(CCNc2ncnc3ccsc23)s1 + NCC(=O)Nc1ccc(-n2nc(C(F)(F)F)cc2-c2ccc3c(ccc4ccccc43)c2)cc1 [OSU03012] (first compound 0.004 µM, partner dose 5 µM)",67.5%,59.9%,49.3%,65.4%,69.8%,79.6%,72%,70.3%,53.2%,80%
"CC1(C)NC(=O)N(c2ccc([N+](=O)[O-])c(C(F)(F)F)c2)C1=O [nilutamide] + OCCn1cc(-c2cnc3nnn(Cc4ccc5ncccc5c4)c3n2)cn1 [PF04217903] (first compound 5 µM, partner dose 5 µM)",83.9%,92.6%,90.9%,78.1%,100%,97%,96.8%,83.3%,66.5%,116%
"O=C(Nc1cccc(Cl)c1)Nc1ncc(CCNc2ncnc3ccsc23)s1 + c1cc(-c2cnn3cc(-c4ccc(OCCN5CCCCC5)cc4)cnc23)ccn1 [Dorsomorphin] (first compound 0.004 µM, partner dose 2 µM)",64.5%,66.4%,80.4%,56.6%,71.8%,69.5%,57.4%,42.6%,55%,82.3%
"COc1cc(Nc2ncc(F)c(Nc3ccc4c(n3)NC(=O)C(C)(C)O4)n2)cc(OC)c1OC [Tamatinib] + O=c1cc(-c2cccc3c2Sc2ccccc2S3)oc(N2CCOCC2)c1 [KU55933] (first compound 2 µM, partner dose 5 µM)",59.4%,83.8%,76.6%,72.8%,45.6%,71.6%,71.5%,77.3%,31.6%,98.9%
"COc1cc(Nc2ncc(F)c(Nc3ccc4c(n3)NC(=O)C(C)(C)O4)n2)cc(OC)c1OC [Tamatinib] + COc1cc2c(Oc3ccc4[nH]c(C)cc4c3F)ncnc2cc1OCCCN1CCCC1 [cediranib] (first compound 2 µM, partner dose 2 µM)",70.8%,85.8%,113%,76.6%,29.1%,62.1%,76.4%,73.4%,29.9%,46.9%
"O=c1[nH]nc(Sc2ncc([N+](=O)[O-])s2)n1-c1ccc2c(c1)OCCO2 + Nc1ccn([C@@H]2O[C@H](CO)[C@@H](O)C2(F)F)c(=O)n1 [gemcitabine] (first compound 1 µM, partner dose 0.002 µM)",45.5%,42.7%,44.1%,59.3%,50.3%,54.5%,72.6%,44.3%,63.8%,52.3%
"CC1(C)NC(=O)N(c2ccc([N+](=O)[O-])c(C(F)(F)F)c2)C1=O [nilutamide] + c1cc(-c2cnn3cc(-c4ccc(OCCN5CCCCC5)cc4)cnc23)ccn1 [Dorsomorphin] (first compound 5 µM, partner dose 2 µM)",81.8%,95.5%,92.9%,62.1%,108%,106%,81.2%,75.3%,81.8%,132%
"O=C(Nc1cccc(Cl)c1)Nc1ncc(CCNc2ncnc3ccsc23)s1 + O=C(Nc1ccccc1)c1cc([N+](=O)[O-])ccc1Cl [GW9662] (first compound 0.004 µM, partner dose 10 µM)",49.5%,65.8%,48.5%,81.8%,84%,64.9%,48.8%,52%,45.3%,65.8%
"Cn1cncc1[C@@](N)(c1ccc(Cl)cc1)c1ccc2c(c1)c(-c1cccc(Cl)c1)cc(=O)n2C [tipifarnib] + COc1ccc(COc2ccc(Cc3cnc(N)nc3N)cc2OC)cc1 [GW2580] (first compound 0.05 µM, partner dose 5 µM)",77.4%,77.7%,88.5%,71.3%,47.3%,82.4%,78.4%,87.3%,74%,82.3%
"C[C@@H]1CCN(C(=O)CC#N)C[C@@H]1N(C)c1ncnc2[nH]ccc12 + O=C(O)C(=O)Nc1sc2c(c1C(=O)O)CCNC2 [TCS401] (first compound 5 µM, partner dose 8.33333 µM)",107%,107%,100%,96.8%,103%,97.3%,95.8%,102%,100%,83.3%
"COc1cc(Nc2ncc(F)c(Nc3ccc4c(n3)NC(=O)C(C)(C)O4)n2)cc(OC)c1OC [Tamatinib] + Cc1cc(N2CCOCC2)cc2[nH]c(-c3c(NC[C@@H](O)c4cccc(Cl)c4)cc[nH]c3=O)nc12 [BMS536924] (first compound 2 µM, partner dose 1 µM)",65.9%,79%,53.6%,91.2%,26.7%,67.5%,81.8%,60.7%,24.5%,95.1%
